# Data published in the supplement of paper PMC10126150.
# Values marked as one replicate rest on one cluster of the flow cell; about a third of the high ones do not repeat.
# System: ATP
# Experiment: switch fluorescence ratio, 500 uM ATP over buffer (Cy3 cluster intensity, sum of 5 cycles each) (fold (ratio)); higher = stronger signal-on switching upon ATP binding; sequences stand for … in TCGTCGGCAGCGTCAGATGTGTATAAGAGACAGTTTTTTTTTTTTTTTTTTTTTTTTT…TC
# Conditions: aptamer strand: ATP DNA aptamer (quencher-CACCTGGGGGAGTATTGCGGAGGAAGG + anchor), 100 nM annealed; ATP concentration: 500 uM; one replicate
# In short: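 Exposure to 500 uM ATP lasted 15 min at 22 °C before imaging, and a selection-buffer image was taken beforehand, for Cy3-labelled switching-strand clusters on a modified Illumina MiSeq flow-cell annealed to 100 nM quencher-labelled ATP aptamer. Five buffer/ATP cycles were run with NaOH stripping and re-annealing between them. The fluorescence ratio per cluster is summed target-cycle over summed buffer-cycle Cy3 intensity, averaged per switch-domain sequence. Clusters outside 100-1000 RFU were excluded.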
row,Sequence,switch fluorescence ratio
1,TAGTTTAATG,0.958
2,TGTGACTCGT,0.959
3,GCGTTACAGT,1.05
4,TGCGTTGGGA,1.04
5,GGTACTGGGC,1.04
6,GTTCTAAGTG,0.992
7,TGATAGAGGC,1.03
8,ACCGGTTCCT,0.968
9,GAGTTTGACT,0.979
10,CGATAATTTT,0.962
11,GGATGGCGCT,0.975
12,GCTTTATTAT,0.994
13,CTTTAGGCT,0.95
14,AAAACCGTTG,1
15,ACGGACTTTC,1.44
16,TAGTCTAGTC,0.975
17,ATGAGCCAGC,1.03
18,TCCGTCCTGG,0.988
19,CTTCGGTCAA,2.25
20,CTGGGGTCCT,0.977
21,AATCGGTCGG,1.03
22,CATTGACTCC,1.18
23,GACCCTGAAC,1.46
24,GTCAATCGTA,1.05
25,AACTGGCTCC,1.18

row,Sequence,switch fluorescence ratio
1,GCCATCTAAA,0.962
2,TTCTTTCACG,0.992
3,CGTACAAATC,1.13
4,CCAGCTGATC,1.37
5,ACTCCAGGCG,1.05
6,AACTAGTGAG,1.04
7,CGACTTCAAT,1.64
8,GCCATAGGTA,0.96
9,GTTCGAGTGG,1.01
10,ATCTTTGTAT,1.02
11,GAACCCCCCG,1.28
12,AGCTGGTCAG,1.01
13,ATACCGGGGA,0.958
14,AATTGTTTAC,0.987
15,ACGATGTGTA,1
16,ATCTGTGTAA,0.969
17,TAGTACTTTT,0.988
18,TAACAACATA,1.06
19,CCACCAACCC,1.16
20,TCTTACTCA,1.27
21,GACCTTAACT,1.05
22,CTGGGGTTGA,1
23,ATGTATATAC,1.02
24,CTCAGCGGTC,1.25
25,AGGCGCTTTC,1.4

row,Sequence,switch fluorescence ratio
1,AACAGGAGAC,0.993
2,TAAGGGACCT,0.994
3,AAGGCTTAGG,0.943
4,GGCGTGACGT,0.97
5,GCAATCCGTC,1.11
6,GACATACGCC,1.47
7,CTTTGACGAT,1
8,GGTCTACGCG,1
9,CCCGCTCTTG,1.07
10,AAGAGATTGT,0.976
11,TGTTGTCTGG,0.967
12,AACGTCTGG,0.981
13,AAAGCAGAGC,0.948
14,AGGCTTATTG,0.95
15,CTGACGCGTA,1.37
16,CGACTCTTTC,0.997
17,ATAATCCTTT,0.993
18,TAGGGCCAT,1.01
19,ATAACCGACT,1.18
20,CACGGACGCC,1.09
21,GCCGGTGCCT,0.966
22,TAAAAAAACA,0.991
23,TACTATTGGC,0.907
24,TGTGAGGCAT,1.07
25,CGGGATTTTG,0.943

row,Sequence,switch fluorescence ratio
1,CCTAGCTCCT,1.12
2,CGTGGGGATT,1.06
3,AGACGGATGA,1
4,TCGGGATTCC,1.78
5,GATAGGCCCT,0.979
6,GATCGCTTTT,1.9
7,CGGGGTGGG,1.08
8,ATCAAGGGAG,0.958
9,TACAGCGAAG,0.986
10,GACTGGAAGA,1
11,TCACGGGCCG,1.07
12,TGATCTACCG,1.06
13,CACTACGGTA,1.19
14,GGTAGAGCAA,1.49
15,AGCGACAGGG,1.06
16,GTGAATTAG,1.01
17,GCAGTTTGCG,0.931
18,GCGATGTGG,1.02
19,GACAGCAAGT,1.24
20,TGGAGACCAA,1
21,AGTATATCCT,1.08
22,GAGGCGAGCG,0.972
23,TGATCGTAA,1.07
24,TCATTATTTC,0.953
25,TGGAATAGCC,0.972

row,Sequence,switch fluorescence ratio
1,GACACGATGG,1.04
2,GATGCGTTTC,1.04
3,TCCTGATTA,1.03
4,ACTCTGATGT,1.05
5,ATTTGCGGGA,1
6,AGGCCGCTTG,1.04
7,AGCGGTGACA,0.987
8,CGATGCTGAG,0.976
9,GTTCAGATGG,0.986
10,GGGGCCAGAG,1.01
11,TCTGCAACTG,1.24
12,TCGGTAACGC,1.11
13,AATATTTGAT,0.962
14,GGGAATGGTT,1
15,TCCGCGTGCA,1.17
16,GTTCAATGAG,0.972
17,ACCGGTGATA,1.04
18,TTGTGCTTGC,0.986
19,CACCACTTCC,2.26
20,AGGTGTAGTA,1
21,CAGCTTGGTT,1.01
22,CTTGGATGGA,0.956
23,AAAGTCAAGT,1.02
24,CAGTTGAGTA,0.983
25,CGAAATTGGG,1.03

row,Sequence,switch fluorescence ratio
1,AAACGAGGAC,0.952
2,CTTGTCGC,0.986
3,TGTATGTCTG,1.03
4,ACGGCATATC,1.59
5,CATCTTTAGG,1.02
6,TTGTTGAG,0.994
7,GCGTTGGTTT,0.998
8,GCGGCCCATC,1.01
9,AAGTTGCAGG,1.03
10,TTGTCACGTT,0.972
11,GTGTCCTTCT,0.998
12,TGGGTCAAGC,1
13,GACAAATTAT,1.06
14,AGAATTAGGT,0.945
15,AACTTTAATT,0.983
16,TATAAGACT,0.997
17,ACTCGTGCAT,1.37
18,TTCTCCAAAC,1.05
19,CTGAAAACA,0.946
20,GATCAGCTTA,0.985
21,AAAGAAATTT,0.985
22,ATGGTACGTA,0.98
23,GAACGTTATA,1.14
24,CGGGAAAGAC,1.54
25,ATCGACTAGG,0.996

row,Sequence,switch fluorescence ratio
1,CCGAGTCAGC,2.69
2,TGCTAATACG,1.45
3,GTGGGCCGGT,0.984
4,AACCCTTTCT,1.28
5,GGAAAAGGAA,0.963
6,GCTTGATATA,1.03
7,ATGGCGCACA,1.02
8,GAAAGTTCTA,1.02
9,AGGTTTCATA,0.981
10,AGACTGCTG,1.04
11,AATGGCTTTA,1.01
12,CGACTCATGT,1.01
13,GAAACACAAA,1
14,CCCAGGACTC,1.95
15,GGGGGGCTT,0.979
16,AATATTCTC,0.998
17,CCGCACGGTT,1.41
18,TTCATTTTTC,0.946
19,GACGTTATTT,1.05
20,CGTAGCCGAT,0.995
21,CATCGGCATA,3.56
22,TCTGATAGTG,0.984
23,ACCCTAGCCC,1.03
24,ATGAAGTCTG,1.02
25,CGACTCGGAG,1.05

row,Sequence,switch fluorescence ratio
1,ATTGTGTGGA,1.04
2,GCCTTAAATA,1.01
3,CGCTAGACCC,1.46
4,TCGGACGAGG,1.01
5,GCCGTCATAT,1.01
6,TTTAGCGATC,1.55
7,TGTGTGCACA,1.02
8,GTTATTTGAA,0.991
9,TTGGTAACAC,1.04
10,TGGCATTTGG,1.03
11,TCGCAGGTG,2.55
12,GGTGCAGAAA,0.993
13,GCTCCGGCTT,1.1
14,ATGGGTGGCA,0.958
15,TCAATCGCGC,1.11
16,TAGTAGCGAG,0.955
17,TTCTATCGGA,1.02
18,GCTATTCATA,1
19,CACTAACTTC,1.11
20,GAGTTTTCGA,1.02
21,CGGAACTATT,1.01
22,TAGTGGCATC,1
23,TCTTCTAGCA,1.12
24,TCGTTCTGTT,0.965
25,GATACCCGCG,1.06
